Source: PMC4336329 (PLoS ONE, 2015)
About 2,200 (0.71%) of roughly 310,000 compounds showed an effect of 50% or more. Effects have a minus sign here. The list shows a part of the results.

target: human ether-à-go-go-related gene (hERG) potassium channel (human, UniProt Q12809); assay: primary screen, population patch clamp on CHO cells stably expressing hERG
Sequence (Q12809 whole entry, looked up): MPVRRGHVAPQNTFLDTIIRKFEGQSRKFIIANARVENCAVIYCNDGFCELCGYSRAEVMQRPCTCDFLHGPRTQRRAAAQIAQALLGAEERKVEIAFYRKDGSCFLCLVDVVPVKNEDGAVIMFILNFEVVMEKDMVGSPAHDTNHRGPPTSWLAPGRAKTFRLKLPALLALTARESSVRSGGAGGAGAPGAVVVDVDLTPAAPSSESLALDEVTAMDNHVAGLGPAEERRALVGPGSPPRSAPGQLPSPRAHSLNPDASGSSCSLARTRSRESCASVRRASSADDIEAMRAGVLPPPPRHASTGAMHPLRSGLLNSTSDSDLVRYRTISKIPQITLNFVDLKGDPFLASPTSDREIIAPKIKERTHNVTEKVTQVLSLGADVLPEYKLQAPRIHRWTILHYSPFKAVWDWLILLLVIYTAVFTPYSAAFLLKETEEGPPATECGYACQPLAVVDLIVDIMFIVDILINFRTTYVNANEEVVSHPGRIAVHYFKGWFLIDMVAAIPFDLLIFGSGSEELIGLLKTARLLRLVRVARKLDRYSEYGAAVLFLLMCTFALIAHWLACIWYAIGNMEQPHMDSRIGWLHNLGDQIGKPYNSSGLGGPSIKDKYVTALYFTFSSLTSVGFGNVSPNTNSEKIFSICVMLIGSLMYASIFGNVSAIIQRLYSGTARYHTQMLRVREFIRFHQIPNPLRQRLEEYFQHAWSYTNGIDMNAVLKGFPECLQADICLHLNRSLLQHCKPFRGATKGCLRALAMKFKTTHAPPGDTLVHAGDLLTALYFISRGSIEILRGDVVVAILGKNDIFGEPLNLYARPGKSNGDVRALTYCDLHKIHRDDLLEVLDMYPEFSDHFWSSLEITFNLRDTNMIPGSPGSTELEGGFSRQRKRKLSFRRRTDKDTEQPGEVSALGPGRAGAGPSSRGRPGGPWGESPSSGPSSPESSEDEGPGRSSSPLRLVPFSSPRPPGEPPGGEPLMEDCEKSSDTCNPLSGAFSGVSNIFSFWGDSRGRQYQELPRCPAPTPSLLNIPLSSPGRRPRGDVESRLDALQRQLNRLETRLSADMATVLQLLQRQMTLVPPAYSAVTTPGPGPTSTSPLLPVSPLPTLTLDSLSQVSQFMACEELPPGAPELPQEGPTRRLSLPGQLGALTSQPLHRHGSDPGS

SMILES | hERG current change (%, negative = inhibition) at 1uM
Cn1c(CNC(=O)c2ccccc2F)cc2ccccc21 | 13.7%
CCOC(=O)c1cc2c(s1)-c1c(C)cccc1OC2 | 15.6%
CCc1cc(C(=O)c2ccc(OC)cc2)c(NC(=O)CC(C)(C)CC(=O)O)s1 | 11.1%
c1nc(N2CCOCC2)c2[nH]cnc2n1 | 9.82%
CC1CCN(CCCNS(=O)(=O)c2ccc3c(c2)CCN3C(=O)C2CC2)CC1 | 15.2%
CCn1ncc2c1C(=O)NC1c3ccccc3C(=O)N21 (centres unmarked) | 4.67%
O=C(NCC1CCCO1)c1cccc(NC(=O)c2ccccc2)c1 (centres unmarked) | 12.8%
CCOC(=O)CCCCC(=O)c1[nH]c(=O)[nH]c1CSCCO | 8.47%
O=C(NCCCn1ccnc1)/C(=C\c1cccnc1)NC(=O)c1cccc(Br)c1 | 3.81%
COc1ccccc1C(=O)NCC(=O)NNC(=O)C1COc2ccccc2O1 (centres unmarked) | 9.8%
Cc1cc(C)c(C(=O)NCCCN2CCOCC2)c(C)c1 | 11.1%
Cc1cc(N2CCCC2)nc(-c2ccccc2O)n1 | 1.62%
CCOc1ccc(-n2c(SCC(=O)Nc3ccc4c(c3)OCO4)nc3ccccc3c2=O)cc1 | 12.6%
CC(C)CCn1nnnc1CN1CCN(c2ccc(F)cc2)CC1 | 0.776%
COc1ccc(-c2nnc(NC(=O)c3ccc(F)cc3)o2)cc1 | 11.5%
CC(C)(C)OC(=O)N1CCC(C(=O)N2CCCCCC2)CC1 | 12.6%
[Cl-].c1ccc(-[n+]2nc(Nc3cccc4ccccc34)sc2-c2c3ccccc3cc3ccccc23)cc1 | 17.6%
COc1cccc(/C=C/c2onc(C)c2S(=O)(=O)N2CCC(C(=O)NC3CCCCCC3)CC2)c1 | 2.31%
Cc1ccc2c(c1)N(C(=O)CCC(=O)NCCN1CCOCC1)CCO2 | 6.54%
O=C1CCN(c2ccc([N+](=O)[O-])cc2F)CC1 | 13.2%
Cc1ccc(NC(=O)CCN2C(=O)c3ccccc3S2(=O)=O)cc1F | 4.54%
O=C(Nc1ccc(Cl)cc1)c1csc(Cc2ccccc2)n1 | 12.4%

SMILES | hERG current change (%, negative = inhibition) at 1uM
C/C(Cn1nc([N+](=O)[O-])cc1C)=N\NC(=O)c1ccc(C(C)(C)C)cc1 | -0.797%
CC(=O)Nc1nc2ccc(-c3nc4ccccc4o3)cc2s1 | 9.18%
CC(Cc1cccs1)NC(=O)NC1CCCCC1 (centres unmarked) | 9.41%
O=[N+]([O-])c1cc(C(F)(F)F)cc([N+](=O)[O-])c1NCCCN1CCOCC1 | 1.8%
Nc1cccc2c1C(=O)N(C(=O)c1ccc(S(=O)(=O)N3CCCCCC3)cc1)C2=O | 7.91%
O=P(c1ccccc1)(c1ccccc1)C(O)c1ccc(Br)cc1 (centres unmarked) | 19.2%
CCCCn1c(-c2cccc3ccccc23)nc2cc3[nH]c(=O)c(C(C)C)nc3cc21 | 3.21%
CC(=O)N1CN2CN(C1)CN(C(C)=O)C2 | 7.53%
CCC(=NCCCN(CC)CC)c1c(O)n(-c2ccccc2)c(=O)[nH]c1=O | 3.7%
COc1ccc(N2C(=O)NC(=O)/C(=C/c3ccc4c(c3)Cc3ccccc3-4)C2=O)cc1 | 7.65%
CC(C)CN1CCC(=O)N(CCOc2ccccc2)CC1 | 15.5%
COc1ccc(C(=O)NCc2nnc(SCC(=O)N3CCC(C)CC3)o2)cc1OC | 10.9%
COC(=O)c1nc2ccccc2s1 | 11.7%
Cc1onc(-c2ccccc2)c1C(=O)Nc1ccncc1 | 15.3%
Cc1ccc(NS(=O)(=O)c2cc(C(=O)NCc3ccccn3)ccc2Cl)cc1 | 13.6%
COc1ccc(N2CCN(C(CNC(=O)C(C)(C)C)c3ccco3)CC2)cc1 (centres unmarked) | 2.34%
CCc1ccc(CN(C)CC(=O)Nc2ccccc2[N+](=O)[O-])cc1 | 6.79%
CP(=O)(COC(=O)c1ccccc1)COC(=O)c1ccccc1 | 1.81%
O=C(NCCN1CCCc2ccccc21)C1CCC(=O)N(CCc2ccccc2)C1 (centres unmarked) | 10.6%
O=C(CSc1nc2ccccc2c(=O)n1-c1ccccc1)N1CCC1 | 18.3%
CC1=C(C(=O)OCc2ccccc2)C(c2ccoc2)C(C#N)=C(N)O1 (centres unmarked) | 7.02%
CCc1c(C(=O)NNC(=S)NCc2ccccc2)csc1C | -1.77%
